Hit rate of the full screen: of about 310,000 compounds, about 11,000 (3.5%) were called active. Inconclusive results, whose numbers are uncertain, are shown with a selection of clear calls. Calls follow the shape of the dose curve; as a rule, active = well fitted inhibition curve with a large enough effect; inconclusive = small, poorly fitted or top-dose-only effect, or effect the other way; inactive = flat fitted curve, though single readings scatter. No potency is given beside an inconclusive call; the fits are too rough.
Experiment: VP16 counterscreen qHTS for inhibitors of ROR gamma transcriptional activity;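 also: Gal4-VP16 expression switched on by copper sulfate through the metallothionein promoter; nearly all actives have a fitted effect of over 50% in size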
Conditions: Drosophila S2 Gal4-VP16 UAS-luciferase, luminescence, 20 h; activity, negative = inhibition: at 53.6 µM (top of the series)
% is scaled to controls: 0 for no effect and ±100 for the full control effect; potency is read from the fitted curve at half-maximal effect; tags tell the direction and shape of the fitted curve.

Compound	Potency	activity, negative = inhibition
CC(C)c1nnc(NC(=O)c2nc(S(=O)(=O)Cc3ccc(F)cc3)ncc2Cl)s1	inconclusive [inhibitor, single point]	
O=C(NCCc1ccccn1)c1cc(-c2ccccc2Cl)nc2ccccc12	inconclusive [inhibitor, single point]	
COC(=O)c1ccc2nc(NC(=O)CN3C(=O)CCC3=O)sc2c1	inactive	
CC1=CC(=O)C=C(C)C1=NOS(=O)(=O)c1ccccc1	active: 17.8 µM	
CCCCCCCCCCn1c2c(c(=N)c3c1CCC3)CCC2	active: 3.16 µM	
O=[N+]([O-])c1cccc(Nc2c3ccccc3nc3ccccc23)c1	inconclusive [inhibitor, single point]	
C=CCn1c(CSc2ccccc2[N+](=O)[O-])n[nH]c1=S	inactive	
CCOc1ccc2nc(SC3CC(=O)N(c4ccc(OC)cc4OC)C3=O)sc2c1 (stereo unspecified)	inconclusive [inhibitor, single point]	
CCN1CCCC1CNC(=O)C(=O)NC(C)C (stereo unspecified)	inconclusive [inhibitor, single point]	
O=C(NC1CC1)c1ccc(CN(c2ccccc2)S(=O)(=O)c2ccccc2)cc1	inconclusive [inhibitor, single point]	
Cc1cccc(NC2=C(C#N)C(=O)NC3(CCCC3)S2)c1	inconclusive [inhibitor, single point]	
Cc1ccc(Cl)cc1NC(=S)Nn1cnnc1	inconclusive [inhibitor, single point]	
Cc1cccc(NCc2nc3ccccc3n2Cc2ccccc2)c1	inconclusive [inhibitor, single point]	
c1ccc(Cn2nnc3c(N4CCc5ccccc5C4)ncnc32)cc1	inactive	
O=C(/C=C/c1ccccc1Cl)c1cccnc1	inconclusive [inhibitor, single point]	
O=C(Oc1ccccc1N1C(=O)C2CC=CCC2C1=O)c1ccc(Br)cc1 (stereo unspecified)	inconclusive [activator, single point]	
COc1ccc(-n2nnnc2SCC(=O)c2cccc(OC)c2)cc1	inconclusive [inhibitor, single point]	
Cc1oc(/C=N/NC(=O)CC2(C)OCCO2)cc1Br	inactive	
O=C(CN1CCOCC1)Nc1ccc(N2CCN(c3ccccc3)CC2)c(F)c1	inactive	
Cc1c(C)c2c(OCC(=O)O)cc3c(c2oc1=O)CCC(C)(C)O3	inactive	
C[C@@H](c1ccccc1)N1C(=O)[C@H]2[C@H]3[C@H](O)[C@H](O)C/C(=N/OCc4ccccc4)[C@H]3CC[C@@H]2C1=O		inactive: -0.059% [at 10 µM]
COc1cccc(CSc2nc3ccccc3[nH]2)c1	inconclusive [inhibitor, single point]	
Cc1cccc(NC(=S)NCc2cccs2)c1C	active: 10 µM	
CC1(C)C(c2ccccn2)=[N+]([O-])C(C)(C)N1O	inactive	
CC(C)(C)OC(=O)N1CCC(CC2CC(c3cccc(Br)c3)=NO2)(C(=O)O)CC1 (stereo unspecified)	inactive	
Cc1ccc(C(=O)c2nocc2C(=O)c2cccs2)cc1	inconclusive [inhibitor, single point]	

Compound	Potency	activity, negative = inhibition
CCc1nnc(NS(=O)(=O)c2ccc(NC(=S)NC(=O)/C=C/c3ccccc3)cc2)s1	inactive	
Clc1ccc(C2=NNC(=NCc3ccc4c(c3)OCO4)SC2)cc1	inconclusive [activator, single point]	
COc1cccc(NC(=O)CCCn2c(=S)[nH]c3ccccc3c2=O)c1	inconclusive [inhibitor, single point]	
Cc1ccc(-c2cc(-c3ccco3)c3c(N)c(C(=O)NN)oc3n2)cc1	inactive	
CC(=O)O[C@H]1C[C@@]2(C)[C@@H](C[C@@H](O)[C@H]3[C@@]4(C)CC[C@@H](O)[C@@H](C)C4CC[C@@]32C)/C1=C(\CCC=C(C)C)C(=O)O (stereo partly specified)	inconclusive [inhibitor, single point]	
Cn1cc(Br)c(C(=O)Nc2ncc(Br)s2)n1		inactive: -4.67% [at 10 µM]
CCCn1c(SCC(=O)c2cc(C)ccc2C)n[nH]c1=O	inconclusive [inhibitor, single point]	
C/C(=N\NC(=O)C(C)Oc1ccc([N+](=O)[O-])cc1)c1ccccn1 (stereo unspecified)	active: 2.24 µM	
COC(=O)c1cn(NC(=O)C2CCCO2)c(=O)c2ccccc12 (stereo unspecified)	inconclusive [inhibitor, single point]	
CC(C)(C)CC(=O)NC(=S)N1CCCCCC1	inconclusive [inhibitor, single point]	
COc1ccc2c(c1)c(C(=O)OCCN(C)C)c(C)n2C	inactive	
CC1CCCCN1C(=O)CNCc1ccc(F)cc1 (stereo unspecified)	inactive	
O=c1c(-c2ccc(Br)cc2)[n+]([O-])c2ccccc2n1OCc1ccccn1		inactive: -11% [at 10 µM]
O=C(c1nnsc1S(=O)(=O)c1ccc(Cl)cc1)N1CCOCC1	active: 10 µM	
FC(F)(F)c1ccc(C2[C@H]3CN(Cc4cccnc4)[C@H](c4ccccc4)C34CC2(c2cccnc2)C4)cc1 (stereo partly specified)	inconclusive [inhibitor, single point]	
CCOc1ccccc1NC(=O)c1ccc2ccccc2c1	inconclusive [activator, single point]	
Cc1ccc(-c2cnc(NC(=O)CCC(=O)N3CCCCC3)n2C)cc1	active: 7.94 µM	
CC(C)c1ccccc1NC(=O)COC(=O)Cc1cccc(C(F)(F)F)c1	inactive	
COc1ccc(S(=O)(=O)CC(=O)c2cc3cc(Br)ccc3oc2=O)cc1	inconclusive [inhibitor, single point]	
CCC1CCCCN1CC(=O)c1c(C)[nH]c2cc(C)ccc12 (stereo unspecified)	inactive	
CNC[C@@H](CC1CCCCC1)NC[C@H](CC(C)C)NCCc1cccc(C(F)(F)F)c1	inconclusive [inhibitor, single point]	
Cc1ccc(OCCN2CCN(C(=O)CCC(=O)Nc3nnc(C)s3)CC2)cc1	inactive	
O=C(c1cc(C2CC2)on1)N1CCCC(N2CCN(c3cccc(C(F)(F)F)c3)CC2)C1 (stereo unspecified)	inactive	
CCn1c(C)nc2cc(C(=O)OCCC(F)(F)F)ccc21	inconclusive [inhibitor, single point]	
COc1cc(NC(=O)C2=C(C)OCCS2)c(Cl)cc1C(=O)NCCN(C)C	inactive	
COc1ccccc1/C=C/C(=O)NC(=S)NCC1CCCO1 (stereo unspecified)	inconclusive [inhibitor, single point]	

Compound	Potency	activity, negative = inhibition
CCOC(=O)Cc1cc(=O)[nH]c(Nc2nc3ccccc3o2)n1	active: 15.8 µM	
Cc1cc(NC(=O)COC(=O)C2CCN(S(=O)(=O)c3cccc(Cl)c3Cl)CC2)no1	inactive	
N#C/C(=C/c1ccc(O)c(O)c1)C(=O)NCc1ccc(Cl)cc1	inconclusive [inhibitor, single point]	
CC(C)C(=O)N1CCN(c2ccc([N+](=O)[O-])cc2Cl)CC1	inactive	
CC1(C)CC(=O)C(C=NCCN2CCN(C3CC(=O)N(c4ccc(Br)cc4)C3=O)CC2)=C(O)C1 (stereo unspecified)	inactive	
O=C(NCCc1nnc2ccc(NCCCN3CCOCC3)nn12)c1ccccc1F	inactive	
CN(C)CCN(C(=O)c1cccc2ccccc12)c1nc2cc3c(cc2s1)OCO3	inactive	
Cc1ccccc1-c1cc(N(C)C)ncn1	inactive	
COc1cccc(C(=O)c2sc(NC(C)C)nc2N)c1	active: 11.2 µM	
COc1cc2c(cc1NC(=O)C(C)NCc1ccccc1)oc1ccccc12 (stereo unspecified)	inconclusive [inhibitor, single point]	
CN(C)c1ccc(/C=C/C(=O)c2ccc(O)cc2)cc1[N+](=O)[O-]	active: 5.01 µM	
COc1ccc(N/C=C\C(=O)c2ccc3c(c2)OCO3)cc1	inconclusive [inhibitor, partial curve]	
Cc1cc(C)nc(-n2nc(C)cc2Nc2ccccc2)n1	active: 0.224 µM	
CC(=O)c1c(C)[nH]c(=S)c(C#N)c1-c1ccc(Cl)cc1	inconclusive [inhibitor, single point]	
COc1ccc(-n2c(C)cc(/C=N/Nc3nnc(C)n3N)c2C)cc1	inconclusive [inhibitor, single point]	
CCOc1ccc2nc(-c3ccccc3)[nH]c2c1	inconclusive [inhibitor, partial curve, poor fit]	
CC(C)OC(=O)c1ccc(Cn2nnc3ccccc3c2=O)cc1	inconclusive [inhibitor, single point]	
OCCN1CCN(c2nc(-c3ccccc3)nc3c2oc2ccccc23)CC1	inconclusive [inhibitor, single point]	
Cc1cccc(NC(=O)c2sc(C)nc2C)c1	inconclusive [activator, single point]	
O=C(c1ccccc1)N1CCN(c2ncnc3sc4c(c23)CCC4)CC1	inconclusive [inhibitor, full curve, poor fit]	
Cc1ccc(NC(=S)N(CCCN2CCOCC2)Cc2ccco2)cc1C	inconclusive [inhibitor, single point]	
CC1CCCN(c2nc(NCc3ccco3)nc(N)c2[N+](=O)[O-])C1 (stereo unspecified)	inconclusive [inhibitor, single point]	
CCCC(=O)NC(=S)Nc1ccc(Cl)cn1	active: 6.31 µM	
O=C1OC2(CCCCC2)OC(=O)C1=CNc1nccs1	inactive	

From PubChem BioAssay AID2546 (National Center for Advancing Translational Sciences (NCATS), 2010)
